Data as given in the supplement of paper PMC3334620.
In all, about 33,000 sequences were measured (“E-score (-0.5 to 0.5)”: median about -0.054, highest 2% from about 0.39 on). The list shows a part of the results.

The sequences below were run against Ylr278c (UniProt Q05854) (assay: PBM E-score (8-mer binding enrichment) (E-score (-0.5 to 0.5)); higher = stronger / more preferred TF binding; most listed sequences are background and not binding sites). Settings: protein concentration: 200 nM; construct: GST-DNA-binding domain.
Method: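 Universal 'all 10-mer' protein binding microarrays (Agilent AMADID 015681) probed with GST-tagged S. cerevisiae TFs (full-length or DBD) made by in vitro transcription/translation (PURExpress), about 100-200 nM. Bound TF was detected with fluorescent anti-GST. Each ungapped 8-mer (which stands for itself and its reverse complement) is scored by the PBM enrichment score (E-score), a modified Wilcoxon-Mann-Whitney statistic from -0.5 to +0.5, computed with the Universal PBM Analysis Suite. Scale: above 0.35 generally sequence-specific binding.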

Compared with CGTAGGCC, GCCCTCGA is lower in “PBM E-score” value: -0.142 for the first, -0.298 for the second.

Compared with AGCGTATC, GCACCCAA is higher in “PBM E-score” value: -0.124 for the first, 0.127 for the second.

Going from ATGGGTTG to CTAAGCAG, the “PBM E-score” value rises from -0.114 to -0.0236.

Going from TCAATCCA to GCGATCAA, the “PBM E-score” value rises from -0.124 to -0.0978.

First: GTCATGTA
Second: ATGAGATA
The “PBM E-score” value of the first is lower: -0.224 for the first, -0.0679 for the second.

Compared with CCCGTCTC, TCCGAGGA is higher in “PBM E-score” value: 0.126 for the first, 0.401 for the second.

Compared with CCGGTCCG, GGACTTAC is lower in “PBM E-score” value: 0.45 for the first, 0.305 for the second.

Compared with GAATGGCC, CTCCGGTC is higher in “PBM E-score” value: 0.283 for the first, 0.455 for the second.

Compared with CATCGAGC, CAGTCGTC is lower in “PBM E-score” value: 0.0386 for the first, -0.0543 for the second.

Going from CCTCCTGA to CATTCAAG, the “PBM E-score” value rises from -0.172 to -0.154.

Compared with CTACTTAA, CCTCCGTA is higher in “PBM E-score” value: -0.181 for the first, 0.37 for the second.

Going from AGTCCTAG to GAGTATGC, the “PBM E-score” value rises from -0.133 to 0.1.

Compared with GGCTCACA, GACACGTA is lower in “PBM E-score” value: -0.0723 for the first, -0.186 for the second.

Going from CAGCGTAG to CATGTCGG, the “PBM E-score” value rises from -0.0957 to 0.23.

First: AAGGACCG
Second: AGCGTCTC
The “PBM E-score” value of the first is higher: 0.177 for the first, 0.0181 for the second.

Going from ACCGTGAC to ACTTGACC, the “PBM E-score” value falls from 0.0148 to -0.163.

First: CGTGGTAC
Second: AAAAATGG
The “PBM E-score” value of the first is lower: -0.178 for the first, 0.0789 for the second.

Compared with TCCATACA, TATTTCCA is higher in “PBM E-score” value: -0.0994 for the first, 0.0948 for the second.

Going from CGGAGCCC to AGAAGACA, the “PBM E-score” value falls from 0.37 to -0.214.

Going from AGGAGAGC to CTATAGCA, the “PBM E-score” value rises from -0.275 to -0.158.

Going from AAGCGTTG to ATACAGTA, the “PBM E-score” value rises from -0.256 to -0.11.

Compared with CCGGGCAG, CAGCCGCG is lower in “PBM E-score” value: 0.254 for the first, 0.118 for the second.

First: GACCAGAA
Second: GCGAGGCC
The “PBM E-score” value of the first is lower: -0.17 for the first, -0.0939 for the second.

First: ACCAACCG
Second: GCCGGGCC
The “PBM E-score” value of the first is lower: 0.0753 for the first, 0.28 for the second.

Going from ACGAATAA to GGGCCTTA, the “PBM E-score” value falls from 0.0238 to -0.145.

Going from AGGTCTCG to GTTTCGAA, the “PBM E-score” value falls from -0.0595 to -0.0713.

Going from AGCCCCCA to TCCTTGCA, the “PBM E-score” value rises from -0.327 to -0.0166.

Compared with GTACGAAC, GCAGAACA is lower in “PBM E-score” value: 0.109 for the first, 0.0396 for the second.

First: AGATATCC
Second: AAATGATT
The “PBM E-score” value of the first is lower: 0.123 for the first, 0.177 for the second.

First: ATGTCAGA
Second: CTACTGGA
The “PBM E-score” value of the first is lower: -0.161 for the first, -0.133 for the second.

Compared with TCCGTGAA, ACGATCGC is lower in “PBM E-score” value: 0.292 for the first, 0.065 for the second.

Compared with AGCGAACA, AGGGACAA is lower in “PBM E-score” value: 0.0531 for the first, 0.0139 for the second.

Compared with GTAAAGGA, CACTTGAG is lower in “PBM E-score” value: -0.0781 for the first, -0.156 for the second.

First: ACCCCCTA
Second: TAAGAGCA
The “PBM E-score” value of the first is lower: -0.413 for the first, -0.216 for the second.

Going from GCGAATCA to GCTTAGAC, the “PBM E-score” value falls from 0.0285 to -0.237.

Going from CCAAGGCC to ATGAGTGG, the “PBM E-score” value falls from -0.0974 to -0.147.

First: CAATAAAG
Second: ACGCGCAT
The “PBM E-score” value of the first is lower: -0.118 for the first, -0.0626 for the second.

First: CCCCTGGA
Second: CACGAACA
The “PBM E-score” value of the first is lower: -0.132 for the first, -0.09 for the second.

Going from ATGTTTGA to TCCTGGCA, the “PBM E-score” value rises from -0.177 to -0.153.

Going from CGCCGGGA to GCGCTCCC, the “PBM E-score” value falls from 0.412 to -0.0394.

Going from CATGTATA to ATAACGTA, the “PBM E-score” value rises from -0.306 to 0.0163.

Compared with ATGCTGTG, AGTGTTTC is higher in “PBM E-score” value: -0.133 for the first, -0.104 for the second.

Going from TGCTCACA to AGTTGAAC, the “PBM E-score” value rises from -0.331 to -0.259.
